From the supplement of paper PMC8728848
The list shows a part of the results.

Tests used:
Assay in all cases: glycan array binding signal (z-score within array); higher = stronger binding
Details in all cases: glycan notation: IUPAC condensed, linker removed
[1] = target: Fuc(a1-3)[Gal(b1-4)]GlcNAc(b1-2)Man
Procedure, shortened: (§1)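 Glycan array data came from 3228 arrays in the Consortium for Functional Glycomics database, and only arrays with an available protein sequence were kept. Glycan names were put into IUPAC-condensed notation, and columns mapping to the same glycan were averaged. The binding signal is a within-array Z-score, averaged across arrays of one protein sequence run at different concentrations or buffers and across linkers. A negative Z-score can be read as non-binding.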

[2] = target: Fuc(a1-3)[Gal(b1-4)]GlcNAc(b1-2)Man(a1-3)[Fuc(a1-3)[Gal(b1-4)]GlcNAc(b1-2)Man(a1-6)]Man(b1-4)GlcNAc(b1-4)GlcNAc
Procedure, shortened: as §1

[3] = target: Fuc(a1-3)[Gal(b1-4)]GlcNAc(b1-2)Man(a1-3)[Fuc(a1-3)[Gal(b1-4)]GlcNAc(b1-2)Man(a1-6)]Man(b1-4)GlcNAc(b1-4)[Fuc(a1-6)]GlcNAc
Procedure, shortened: as §1

[4] = target: Fuc(a1-3)[Gal(b1-4)]GlcNAc(b1-3)Gal(b1-3)[Fuc(a1-4)]GlcNAc
Procedure, shortened: as §1

[5] = target: Fuc(a1-3)[Gal(b1-4)]GlcNAc(b1-3)GalNAc
Procedure, shortened: as §1

[6] = target: Fuc(a1-3)[Gal(b1-4)]GlcNAc(b1-4)Gal(b1-4)[Fuc(a1-3)]GlcNAc
Procedure, shortened: as §1

[7] = target: Fuc(a1-3)[Gal(b1-4)]GlcNAc(b1-4)Gal(b1-4)[Fuc(a1-3)]GlcNAc(b1-4)Gal(b1-4)[Fuc(a1-3)]GlcNAc
Procedure, shortened: as §1

[8] = target: Fuc(a1-3)[Gal(b1-4)]GlcNAc(b1-6)GalNAc
Procedure, shortened: as §1

[9] = target: Fuc(a1-3)[Gal(b1-4)]GlcNAc(b1-6)[Gal(b1-3)GlcNAc(b1-3)]Gal(b1-4)Glc
Procedure, shortened: as §1

[10] = target: Fuc(a1-3)[Gal(b1-4)]GlcNAc6S
Procedure, shortened: as §1

[11] = target: Fuc(a1-3)[Gal3S(b1-4)]Glc
Procedure, shortened: as §1

[12] = target: Fuc(a1-3)[Gal3S(b1-4)]GlcNAc
Procedure, shortened: as §1

[13] = target: Fuc(a1-3)[Gal3S(b1-4)]GlcNAc6S
Procedure, shortened: as §1

[14] = target: Fuc(a1-3)[GalNAc(b1-4)]GlcNAc
Procedure, shortened: as §1

[15] = target: Fuc(a1-3)[GalNAc(b1-4)]GlcNAc6S
Procedure, shortened: as §1

Fuc(a1-4)GlcNAc = target: Fuc(a1-4)GlcNAc
Procedure, shortened: as §1

Fuc(b1-3)GlcNAc = target: Fuc(b1-3)GlcNAc
Procedure, shortened: as §1

Gal(a1-2)Gal = target: Gal(a1-2)Gal
Procedure, shortened: as §1

Gal(a1-3)Gal = target: Gal(a1-3)Gal
Procedure, shortened: as §1

Gal(a1-3)Gal(b1-3)GlcNAc = target: Gal(a1-3)Gal(b1-3)GlcNAc
Procedure, shortened: as §1

[16] = target: Gal(a1-3)Gal(b1-3)GlcNAc(b1-2)Man
Procedure, shortened: as §1

[17] = target: Gal(a1-3)Gal(b1-3)GlcNAc(b1-2)Man(a1-3)[Gal(a1-3)Gal(b1-3)GlcNAc(b1-2)Man(a1-6)]Man(b1-4)GlcNAc(b1-4)GlcNAc
Procedure, shortened: as §1

[18] = target: Gal(a1-3)Gal(b1-3)GlcNAc(b1-3)GalNAc
Procedure, shortened: as §1

[19] = target: Gal(a1-3)Gal(b1-3)GlcNAc(b1-6)GalNAc
Procedure, shortened: as §1

[20] = target: Gal(a1-3)Gal(b1-3)[Fuc(a1-4)]GlcNAc(b1-2)Man(a1-3)[Gal(a1-3)Gal(b1-3)[Fuc(a1-4)]GlcNAc(b1-2)Man(a1-6)]Man(b1-4)GlcNAc(b1-4)GlcNAc
Procedure, shortened: as §1

Gal(a1-3)Gal(b1-4)Glc = target: Gal(a1-3)Gal(b1-4)Glc
Procedure, shortened: as §1

Gal(a1-3)Gal(b1-4)GlcNAc = target: Gal(a1-3)Gal(b1-4)GlcNAc
Procedure, shortened: as §1

[21] = target: Gal(a1-3)Gal(b1-4)GlcNAc(b1-2)Man
Procedure, shortened: as §1

[22] = target: Gal(a1-3)Gal(b1-4)GlcNAc(b1-2)Man(a1-3)[Gal(a1-3)Gal(b1-4)GlcNAc(b1-2)Man(a1-6)]Man(b1-4)GlcNAc(b1-4)GlcNAc
Procedure, shortened: as §1

[23] = target: Gal(a1-3)Gal(b1-4)GlcNAc(b1-3)GalNAc
Procedure, shortened: as §1

[24] = target: Gal(a1-3)Gal(b1-4)GlcNAc(b1-6)GalNAc
Procedure, shortened: as §1

[25] = target: Gal(a1-3)Gal(b1-4)[Fuc(a1-3)]GlcNAc
Procedure, shortened: as §1

[26] = target: Gal(a1-3)Gal(b1-4)[Fuc(a1-3)]GlcNAc(b1-2)Man(a1-3)[Gal(a1-3)Gal(b1-4)[Fuc(a1-3)]GlcNAc(b1-2)Man(a1-6)]Man(b1-4)GlcNAc(b1-4)GlcNAc
Procedure, shortened: as §1

Gal(a1-3)GalNAc = target: Gal(a1-3)GalNAc
Procedure, shortened: as §1

[27] = target: Gal(a1-3)[Gal(a1-4)]Gal(b1-4)GlcNAc
Procedure, shortened: as §1

[28] = target: Gal(a1-4)Gal(b1-3)GlcNAc(b1-2)Man(a1-3)[Gal(a1-4)Gal(b1-3)GlcNAc(b1-2)Man(a1-6)]Man(b1-4)GlcNAc(b1-4)GlcNAc
Procedure, shortened: as §1

Gal(a1-4)Gal(b1-4)Glc = target: Gal(a1-4)Gal(b1-4)Glc
Procedure, shortened: as §1

Gal(a1-4)Gal(b1-4)GlcNAc = target: Gal(a1-4)Gal(b1-4)GlcNAc
Procedure, shortened: as §1

B1: Gal 9 (Homo sapiens), O00182 (protein)
chain: MAFSGSQAPYLSPAVPFSGTIQGGLQDGLQITVNGTVLSSSGTRFAVNFQTGFSGNDIAFHFNPRFEDGGYVVCNTRQNGSWGPEERKTHMPFQKGMPFDLCFLVQSSDFKVMVNGILFVQYFHRVPFHRVDTISVNGSVQLSYISFQNPRTVPVQPAFSTVPFSQPVCFPPRPRGRRQKPPGVWPANPAPITQTVIHTVQSAPGQMFSTPAIPPMMYPHPAYPMPFITTILGGLYPSKSILLSGTVLPSAQRFHINLCSGNHIAFHLNPRFDENAVVRNTQIDNSWGSEERSLPRKMPFVRGQSFSVWILCEAHCLKVAVDGQHLFEYYHRLRNLPTINRLEVGGDIQLTHVQT
[1]
  glycan array binding signal (z-score): -0.258
[2]
  glycan array binding signal (z-score): -0.321
[3]
  glycan array binding signal (z-score): -0.283
[4]
  glycan array binding signal (z-score): -0.31
[5]
  glycan array binding signal (z-score): -0.308
[6]
  glycan array binding signal (z-score): -0.303
[7]
  glycan array binding signal (z-score): -0.332
[8]
  glycan array binding signal (z-score): -0.299
[9]
  glycan array binding signal (z-score): -0.236
[10]
  glycan array binding signal (z-score): -0.311
[11]
  glycan array binding signal (z-score): -0.295
[12]
  glycan array binding signal (z-score): -0.318
[13]
  glycan array binding signal (z-score): -0.225
[14]
  glycan array binding signal (z-score): -0.31
[15]
  glycan array binding signal (z-score): -0.297
Fuc(a1-4)GlcNAc
  glycan array binding signal (z-score): -0.307
Fuc(b1-3)GlcNAc
  glycan array binding signal (z-score): -0.313
Gal(a1-2)Gal
  glycan array binding signal (z-score): -0.313
Gal(a1-3)Gal
  glycan array binding signal (z-score): -0.306
Gal(a1-3)Gal(b1-3)GlcNAc
  glycan array binding signal (z-score): -0.292
[16]
  glycan array binding signal (z-score): -0.279
[17]
  glycan array binding signal (z-score): -0.28
[18]
  glycan array binding signal (z-score): -0.297
[19]
  glycan array binding signal (z-score): -0.279
[20]
  glycan array binding signal (z-score): -0.26
Gal(a1-3)Gal(b1-4)Glc
  glycan array binding signal (z-score): -0.272
Gal(a1-3)Gal(b1-4)GlcNAc
  glycan array binding signal (z-score): 0.085
[21]
  glycan array binding signal (z-score): -0.255
[22]
  glycan array binding signal (z-score): -0.175
[23]
  glycan array binding signal (z-score): 0.023
[24]
  glycan array binding signal (z-score): -0.293
[25]
  glycan array binding signal (z-score): -0.322
[26]
  glycan array binding signal (z-score): -0.304
Gal(a1-3)GalNAc
  glycan array binding signal (z-score): -0.304
[27]
  glycan array binding signal (z-score): -0.31
[28]
  glycan array binding signal (z-score): -0.285
Gal(a1-4)Gal(b1-4)Glc
  glycan array binding signal (z-score): -0.287
Gal(a1-4)Gal(b1-4)GlcNAc
  glycan array binding signal (z-score): -0.299
